{"source": "the supplement of paper PMC8728848", "assay_in_all_cases": "glycan array binding signal (z-score within array); higher = stronger binding", "settings_in_all_cases": "glycan notation: IUPAC condensed, linker removed", "key": {"[1]": {"target": "Neu5Ac(a2-6)GlcNAc(b1-4)GlcNAc(b1-4)GlcNAc", "method_in_brief": "(§1)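 Columns mapping to the same glycan were averaged after glycan names were converted to IUPAC-condensed notation. The data come from 3228 arrays in the Consortium for Functional Glycomics database, limited to those with an available protein sequence. Binding is reported as a within-array Z-score averaged across arrays of one protein sequence and across linkers.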"}, "[2]": {"target": "Neu5Ac(a2-8)Neu5Ac", "method_in_brief": "as §1"}, "[3]": {"target": "Neu5Ac(a2-8)Neu5Ac(a2-3)Gal(b1-3)GalNAc(b1-4)[Neu5Ac(a2-3)]Gal(b1-4)Glc", "method_in_brief": "as §1"}, "[4]": {"target": "Neu5Ac(a2-8)Neu5Ac(a2-3)Gal(b1-3)GalNAc(b1-4)[Neu5Ac(a2-8)Neu5Ac(a2-3)]Gal(b1-4)Glc", "method_in_brief": "as §1"}, "[5]": {"target": "Neu5Ac(a2-8)Neu5Ac(a2-3)Gal(b1-4)Glc", "method_in_brief": "as §1"}, "[6]": {"target": "Neu5Ac(a2-8)Neu5Ac(a2-3)Gal(b1-4)GlcNAc", "method_in_brief": "as §1"}, "[7]": {"target": "Neu5Ac(a2-8)Neu5Ac(a2-3)[Gal(b1-3)GalNAc(b1-4)]Gal(b1-4)Glc", "method_in_brief": "as §1"}, "[8]": {"target": "Neu5Ac(a2-8)Neu5Ac(a2-3)[GalNAc(b1-4)]Gal(b1-4)Glc", "method_in_brief": "as §1"}, "[9]": {"target": "Neu5Ac(a2-8)Neu5Ac(a2-8)Neu5Ac", "method_in_brief": "as §1"}, "[10]": {"target": "Neu5Ac(a2-8)Neu5Ac(a2-8)Neu5Ac(a2-3)Gal(b1-4)Glc", "method_in_brief": "as §1"}, "[11]": {"target": "Neu5Ac(a2-8)Neu5Ac(a2-8)Neu5Ac(a2-3)[Gal(b1-3)GalNAc(b1-4)]Gal(b1-4)Glc", "method_in_brief": "as §1"}, "[12]": {"target": "Neu5Ac(a2-8)Neu5Ac(a2-8)Neu5Ac(a2-3)[GalNAc(b1-4)]Gal(b1-4)Glc", "method_in_brief": "as §1"}, "[13]": {"target": "Neu5Ac(a2-8)Neu5Ac(a2-8)Neu5Ac(a2-8)Neu5Ac(a2-3)[GalNAc(b1-4)]Gal(b1-4)Glc", "method_in_brief": "as §1"}, "[14]": {"target": "Neu5Ac(a2-8)Neu5Gc(a2-3)Gal(b1-4)GlcNAc", "method_in_brief": "as §1"}, "[15]": {"target": "Neu5Ac(b2-6)Gal(b1-4)GlcNAc", "method_in_brief": "as §1"}, "[16]": {"target": "Neu5Ac(b2-6)GalNAc", "method_in_brief": "as §1"}, "[17]": {"target": "Neu5Ac9Ac(a2-3)Gal(b1-3)GlcNAc", "method_in_brief": "as §1"}, "[18]": {"target": "Neu5Ac9Ac(a2-3)Gal(b1-4)GlcNAc", "method_in_brief": "as §1"}, "[19]": {"target": "Neu5Ac9Ac(a2-6)Gal(b1-4)GlcNAc", "method_in_brief": "as §1"}, "[20]": {"target": "Neu5Gc(a2-3)Gal(b1-3)GlcNAc", "method_in_brief": "as §1"}, "[21]": {"target": "Neu5Gc(a2-3)Gal(b1-3)[Fuc(a1-4)]GlcNAc", "method_in_brief": "as §1"}, "[22]": {"target": "Neu5Gc(a2-3)Gal(b1-4)Glc", "method_in_brief": "as §1"}, "[23]": {"target": "Neu5Gc(a2-3)Gal(b1-4)GlcNAc", "method_in_brief": "as §1"}, "[24]": {"target": "Neu5Gc(a2-3)Gal(b1-4)GlcNAc(b1-3)Gal(b1-4)GlcNAc(b1-2)Man(a1-3)[Neu5Gc(a2-3)Gal(b1-4)GlcNAc(b1-3)Gal(b1-4)GlcNAc(b1-2)Man(a1-6)]Man(b1-4)GlcNAc(b1-4)GlcNAc", "method_in_brief": "as §1"}, "[25]": {"target": "Neu5Gc(a2-3)Gal(b1-4)[Fuc(a1-3)]GlcNAc", "method_in_brief": "as §1"}, "[26]": {"target": "Neu5Gc(a2-6)Gal(b1-4)GlcNAc", "method_in_brief": "as §1"}, "[27]": {"target": "Neu5Gc(a2-6)GalNAc", "method_in_brief": "as §1"}, "[28]": {"target": "Neu5Gc(a2-8)Neu5Ac(a2-3)Gal(b1-4)GlcNAc", "method_in_brief": "as §1"}, "[29]": {"target": "Neu5Gc(a2-8)Neu5Gc(a2-3)Gal(b1-4)GlcNAc", "method_in_brief": "as §1"}, "[30]": {"target": "Neu5Gc(a2-8)Neu5Gc(a2-3)Gal(b1-4)GlcNAc(b1-3)Gal(b1-4)GlcNAc", "method_in_brief": "as §1"}, "[31]": {"target": "Neu5Gc(a2-8)Neu5Gc(a2-6)Gal(b1-4)GlcNAc", "method_in_brief": "as §1"}, "[32]": {"target": "Neu5Gc(b2-6)Gal(b1-4)GlcNAc", "method_in_brief": "as §1"}}, "note": "The other results are listed elsewhere or left out."}
{"binder": "CC1G-11630 (Coprinopsis cinerea), A8P462 (protein) MTTEAKIKLKAVVYWELVFDYDNSSNTGEITQSYTVKISQTSTRSTFASEVSTTTIDTLTKNNQEVDVGASYGAISANVSASWEHSEEVNNMLEKTTQTSTEDTYTVETEETRSYTIGPGGMLSLFQKHFSGPGMHVAFDVFTTDLELAKERTEIDIDVDVEAIRFVREIRVVYTDIMSEAPGDHVREINGKNPDINYGFNGKFVWLVPEQTRKTAQALTNVEFVSQAESDDRYWDLAAGAGGSNRYLIPVYDTNNKDKIYELALWRSDSYITHDKVKAAGWSGTTGDINSGRGGTYLNLVWKTRHAY", "values": [{"measurement": "glycan array binding signal (z-score)", "setting": "[1]", "value": -0.618}, {"measurement": "glycan array binding signal (z-score)", "setting": "[2]", "value": 0.519}, {"measurement": "glycan array binding signal (z-score)", "setting": "[3]", "value": -0.228}, {"measurement": "glycan array binding signal (z-score)", "setting": "[4]", "value": -0.22}, {"measurement": "glycan array binding signal (z-score)", "setting": "[5]", "value": -0.62}, {"measurement": "glycan array binding signal (z-score)", "setting": "[6]", "value": -0.508}, {"measurement": "glycan array binding signal (z-score)", "setting": "[7]", "value": -0.386}, {"measurement": "glycan array binding signal (z-score)", "setting": "[8]", "value": 0.069}, {"measurement": "glycan array binding signal (z-score)", "setting": "[9]", "value": 0.018}, {"measurement": "glycan array binding signal (z-score)", "setting": "[10]", "value": -0.108}, {"measurement": "glycan array binding signal (z-score)", "setting": "[11]", "value": -0.205}, {"measurement": "glycan array binding signal (z-score)", "setting": "[12]", "value": -0.394}, {"measurement": "glycan array binding signal (z-score)", "setting": "[13]", "value": -0.33}, {"measurement": "glycan array binding signal (z-score)", "setting": "[14]", "value": -0.52}, {"measurement": "glycan array binding signal (z-score)", "setting": "[15]", "value": -0.248}, {"measurement": "glycan array binding signal (z-score)", "setting": "[16]", "value": -0.235}, {"measurement": "glycan array binding signal (z-score)", "setting": "[17]", "value": 0.279}, {"measurement": "glycan array binding signal (z-score)", "setting": "[18]", "value": -0.202}, {"measurement": "glycan array binding signal (z-score)", "setting": "[19]", "value": -0.598}, {"measurement": "glycan array binding signal (z-score)", "setting": "[20]", "value": -0.487}, {"measurement": "glycan array binding signal (z-score)", "setting": "[21]", "value": -0.454}, {"measurement": "glycan array binding signal (z-score)", "setting": "[22]", "value": -0.367}, {"measurement": "glycan array binding signal (z-score)", "setting": "[23]", "value": -0.457}, {"measurement": "glycan array binding signal (z-score)", "setting": "[24]", "value": 0.099}, {"measurement": "glycan array binding signal (z-score)", "setting": "[25]", "value": -0.942}, {"measurement": "glycan array binding signal (z-score)", "setting": "[26]", "value": -0.519}, {"measurement": "glycan array binding signal (z-score)", "setting": "[27]", "value": -0.389}, {"measurement": "glycan array binding signal (z-score)", "setting": "[28]", "value": -0.687}, {"measurement": "glycan array binding signal (z-score)", "setting": "[29]", "value": -0.522}, {"measurement": "glycan array binding signal (z-score)", "setting": "[30]", "value": -0.517}, {"measurement": "glycan array binding signal (z-score)", "setting": "[31]", "value": -0.498}, {"measurement": "glycan array binding signal (z-score)", "setting": "[32]", "value": -0.389}]}
